Measurements from publication PMC4336329 (PLoS ONE, 2015).
Hit rate of the full screen: of about 310,000 compounds, about 2,200 (0.71%) showed an effect of 50% or more. Effects have a minus sign here. Some of the results follow.

Target: human ether-à-go-go-related gene (hERG) potassium channel (human, UniProt Q12809)
Test: primary screen, population patch clamp on CHO cells stably expressing hERG

Chain of human ether-à-go-go-related gene (hERG) potassium channel (Q12809 whole entry, looked up): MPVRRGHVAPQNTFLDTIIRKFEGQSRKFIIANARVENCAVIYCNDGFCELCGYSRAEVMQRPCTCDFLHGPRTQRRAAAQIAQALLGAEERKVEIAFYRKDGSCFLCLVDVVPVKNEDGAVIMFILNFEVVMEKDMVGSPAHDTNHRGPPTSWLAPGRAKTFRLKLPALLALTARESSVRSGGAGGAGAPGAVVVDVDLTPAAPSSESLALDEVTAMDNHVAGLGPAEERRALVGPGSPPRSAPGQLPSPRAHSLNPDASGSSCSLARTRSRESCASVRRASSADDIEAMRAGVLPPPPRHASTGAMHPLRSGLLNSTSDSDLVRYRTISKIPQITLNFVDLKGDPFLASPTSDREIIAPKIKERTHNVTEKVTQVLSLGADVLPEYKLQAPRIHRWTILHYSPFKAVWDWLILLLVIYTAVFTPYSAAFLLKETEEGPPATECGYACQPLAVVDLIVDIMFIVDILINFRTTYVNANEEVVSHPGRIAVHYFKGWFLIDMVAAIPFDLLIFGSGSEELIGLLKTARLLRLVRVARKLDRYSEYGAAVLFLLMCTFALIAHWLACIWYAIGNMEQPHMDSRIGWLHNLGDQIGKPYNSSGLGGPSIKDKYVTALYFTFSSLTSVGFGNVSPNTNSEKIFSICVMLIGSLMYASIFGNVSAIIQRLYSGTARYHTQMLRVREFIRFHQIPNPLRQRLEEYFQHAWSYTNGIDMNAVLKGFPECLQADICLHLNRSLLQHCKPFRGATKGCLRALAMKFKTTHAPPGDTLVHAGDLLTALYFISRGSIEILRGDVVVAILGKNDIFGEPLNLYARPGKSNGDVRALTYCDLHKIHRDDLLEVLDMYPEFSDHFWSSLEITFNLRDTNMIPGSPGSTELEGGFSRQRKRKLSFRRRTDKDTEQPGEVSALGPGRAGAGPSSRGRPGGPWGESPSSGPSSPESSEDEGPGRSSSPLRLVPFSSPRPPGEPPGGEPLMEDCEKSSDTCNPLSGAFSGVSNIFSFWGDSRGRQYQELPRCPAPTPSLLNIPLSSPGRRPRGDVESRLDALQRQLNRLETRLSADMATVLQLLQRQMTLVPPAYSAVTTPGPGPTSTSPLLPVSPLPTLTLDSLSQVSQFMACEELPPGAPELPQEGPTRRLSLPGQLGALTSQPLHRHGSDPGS

Row | SMILES | hERG current change (%, negative = inhibition) at 1uM
1 | C=C(C)C1(O)OC(=O)C=C1OC (stereo not drawn) | 5.4%
2 | O=C(CSc1nnc(-c2ccccc2O)o1)NC1CCCCC1 | 10.2%
3 | CN(N)C(=S)Nc1ccc(F)cc1 | 10.7%
4 | Cc1ccnc(-n2c(C)cc(/C=N/NC(=O)COc3cccc4cccnc34)c2C)c1 | 10.9%
5 | Cc1cc(C(=O)OCC(=O)N2CCN(c3ccccc3)CC2)c2ccccc2n1 | 13%
6 | COc1ccccc1Oc1ccc2c(c1)C(=O)N(CC(=O)O)C2=O | 12%
7 | O=C(CCC(=O)N1CCOCC1)c1ccc(F)cc1 | 21%
8 | CC(=O)c1ccc(OCc2cc(C(=O)N3CCC[C@H]3CO)no2)cc1 | 10.5%
9 | CCCCn1nc2cc(C(=O)N[C@H](C)C3CCCCC3)ccc2c1OCC | 15.9%
10 | Cc1ccc2c(c1)N=C(c1ccccc1)CC(C(Cl)Cl)=N2 | 17%
11 | CCN1C/C(=C/c2sccc2C)c2nc3ccccc3c(C(=O)O)c2C1.Cl | 9.21%
12 | N/C(=N\OC(=O)c1ccc(F)cc1)c1ccccc1 | 3.31%
13 | CCn1c(SCC(=O)Nc2ccc(C(C)=O)cc2)nc2c([nH]c3ccccc32)c1=O | 15.3%
14 | CCCCNC(=O)c1ccc2c(c1)ncn2C1CCCCC1 | -2.2%
15 | O=C(c1ccc(CSCc2ccccc2F)o1)N1CCN(c2ccc(N3CCOCC3)nn2)CC1 | -25%
16 | F[B-](F)(F)F.OCCCCC[NH+]=c1cc(-c2ccccc2)oc2ccc(Cl)cc12 | -86.1%
17 | CCn1c(=O)c(C(=O)NCCNCCO)c(O)c2ccccc21.Cl | 8.64%
18 | Cc1ccc(Nc2ccc(S(=O)(=O)N3CCOCC3)cc2[N+](=O)[O-])c(C)c1 | 0.103%
19 | C=CCn1c(SCn2nnc3ccccc3c2=O)nnc1-c1ccc(F)cc1 | -7.02%

Row | SMILES | hERG current change (%, negative = inhibition) at 1uM
20 | Cc1cccc(C(=O)OC(C)C(=O)Nc2ccc(S(=O)(=O)Nc3ncccn3)cc2)c1C (stereo not drawn) | 5.04%
21 | COc1ccccc1NC(=O)CC1COc2ccccc2O1 (stereo not drawn) | 12.3%
22 | Cc1ccc(NC(=O)COC(=O)c2c(C)nn(-c3ccccc3)c2C)cc1 | 14.4%
23 | COc1ccc(NC(=O)C(C)N(c2ccc(C)cc2)S(C)(=O)=O)c(OC)c1 (stereo not drawn) | -9.45%
24 | Nc1nnc(SCC(=O)Nc2cccnc2Cl)s1 | 22.3%
25 | C=CCNC(=S)N/N=C/c1ccc(-c2ccc(Cl)cc2Cl)o1 | 4.99%
26 | Cn1c(=O)[nH]c(=O)c2c1nc(SCc1ccccc1Cl)n2CC(N)=O | 14.3%
27 | Cc1ccc(N(C(=O)c2cc3ccccc3oc2=O)C2C=CS(=O)(=O)C2)cc1 (stereo not drawn) | 11.9%
28 | CC(C)c1ccc(S(=O)(=O)N2CCN(C(=O)CN3C(=O)NC4(CCCCC4)C3=O)CC2)cc1 | 8.14%
29 | Cn1c(=NC(=O)C2CCCCC2)sc2cc([N+](=O)[O-])ccc21 | 17.1%
30 | Cc1cccc(N(C)c2ncnc3onc(-c4ccc(F)cc4)c23)c1C | 14.1%
31 | CCc1ccccc1NC(=O)CN(C)Cc1c(O)ccc2ccccc12 | 10.3%
32 | CCOC(=O)c1c2ccccc2[n+]([O-])n1[C@@H](C)C(N)=O | 11.1%
33 | O=C(Oc1ccccc1)N(c1ccccc1)c1ccccc1 | 8.1%
34 | CCCCn1c(N)c(N(CC(C)C)C(=O)Cn2c(=O)cnc3ccccc32)c(=O)[nH]c1=O | 16.5%
35 | COc1ccc2[nH]cc(C3=CCNCC3)c2c1.O=C(O)CCC(=O)O | 6.52%
36 | CCOC(=O)Nc1ccc2c(c1)Sc1ccccc1N2C(=O)CCN1CCOCC1 | 3.45%
37 | CN1CCN(c2ccc(CNS(=O)(=O)Cc3cccc(C(F)(F)F)c3)cc2)CC1 | 7.74%
38 | CC(=O)c1ccc(NC(=S)NC(=O)/C=C/c2ccccc2)cc1 | 15.9%

Row | SMILES | hERG current change (%, negative = inhibition) at 1uM
39 | COc1ccc(CC(=O)Nc2cccc3ncccc23)cc1OC | 10.3%
40 | COc1cccc(Nc2nc(-c3cccnc3)cs2)c1 | 11.1%
41 | O=C(COc1ccc(Cl)cc1)NCc1nnc(SCC(=O)N2CCCCCC2)o1 | -5.31%
42 | Cc1ccc(N2C(N)=C(C#N)C(c3cccnc3)C3=C2CCCC3=O)cc1 (stereo not drawn) | 7.89%
43 | O=C(COC(=O)CNC(=O)c1ccccc1)Nc1ccc2c(c1)OCO2 | 0.501%
44 | COc1ccccc1N1CCN(/N=C/c2ccc(O)cc2O)CC1 | 12.4%
45 | CN1CCN(S(=O)C23CC4CC(CC(C4)C2)C3)CC1 (stereo not drawn) | -10.8%
46 | Cc1ccc(NC(=O)CC2(CC(=O)O)CCCC2)cc1 | 19.7%
47 | Cc1cccc2cc(C#N)c(N3CCOCC3)nc12 | 18.8%
48 | CC1=CC2=NC(=O)CC(C)(C(=O)N(CC(=O)NC(C)C)C3CCCC3)N2C=C1 (stereo not drawn) | 14.8%
49 | COc1ccccc1NC(=O)Nc1ccc(Cc2ccncc2)cc1 | 8.71%
50 | CC(=O)c1ccc(OCC(O)CNCc2ccc3c(c2)OCO3)cc1 (stereo not drawn) | -5.83%
51 | O=C(Nc1ccc2c(c1)OCCO2)C1CCCN(S(=O)(=O)c2cnc[nH]2)C1 (stereo not drawn) | 15.8%
52 | COc1cccc(C2=NOC(C(=O)NCC3CCCO3)C2)c1 (stereo not drawn) | 12.8%
53 | CC(=O)c1c(C)oc2ccc(NS(=O)(=O)c3ccccc3)cc12 | 14.3%
54 | CCNC(=S)NNC(=O)c1csc2ccccc12 | 0.0518%
55 | COc1cccc(C(=O)NCC2CCCN2S(=O)(=O)c2cccs2)c1 (stereo not drawn) | 15.2%
56 | Cc1ccc(CNC(=O)CCS(=O)(=O)c2cc3c(cc2Cl)NC(=O)CO3)cc1 | 0.814%
57 | O=c1c2ccccc2nc(-c2ccccc2)n1-c1ccc(O)cc1 | 16.2%
